# The other results are listed elsewhere or left out. Repeats are few or missing, and single values can be far off.
# Test system: SkMel28
# Test: cell count relative to DMSO control; melanoma cells; higher = more viable cells
# Conditions: library dose: low library concentration; 72 h
# 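Also: cell number obtained by counting DAPI-stained nuclei in high-throughput microscope images with image analysis software, screen run in 1,536-well plates.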
row,SMILES,cell count [%]
1,"CC(=O)c1c(C)c2cnc(Nc3ccc(N4CCNCC4)cn3)nc2n(C2CCCC2)c1=O [palbociclib] + CO[C@@H]1[C@H](N(C)C(=O)c2ccccc2)C[C@H]2O[C@]1(C)n1c3ccccc3c3c4c(c5c6ccccc6n2c5c31)C(=O)NC4 [Midostaurin] (first compound 0.04 µM, partner dose 0.08 µM)",84.6
2,"Nc1ncn([C@H]2C[C@H](O)[C@@H](CO)O2)c(=O)n1 [decitabine] + CO[C@@H]1[C@H](N(C)C(=O)c2ccccc2)C[C@H]2O[C@]1(C)n1c3ccccc3c3c4c(c5c6ccccc6n2c5c31)C(=O)NC4 [Midostaurin] (first compound 0.1 µM, partner dose 0.08 µM)",114
3,"CC(=O)c1c(C)c2cnc(Nc3ccc(N4CCNCC4)cn3)nc2n(C2CCCC2)c1=O [palbociclib] + O=C(O)C(=O)Nc1sc2c(c1C(=O)O)CCNC2 [TCS401] (first compound 0.04 µM, partner dose 1.66667 µM)",70
4,"Nc1nc(F)nc2c1ncn2[C@@H]1O[C@H](CO)[C@@H](O)[C@@H]1O [fludarabine] + CN(C)S(=O)(=O)c1ccc2c(c1)/C(=C/c1cc3c([nH]1)CCCC3)C(=O)N2 [SU6656] (first compound 0.2 µM, partner dose 0.4 µM)",67.6
5,"Nc1nc(F)nc2c1ncn2[C@@H]1O[C@H](CO)[C@@H](O)[C@@H]1O [fludarabine] + Cc1ccc(NC(=O)c2cccc(N(C)C)c2)cc1NC(=O)c1ccc(O)cc1 [ZM336372] (first compound 0.2 µM, partner dose 2 µM)",78.9
6,"Nc1ncn([C@H]2C[C@H](O)[C@@H](CO)O2)c(=O)n1 [decitabine] + c1cc(-c2cnn3cc(-c4ccc(OCCN5CCCCC5)cc4)cnc23)ccn1 [Dorsomorphin] (first compound 0.1 µM, partner dose 0.4 µM)",91
7,"Nc1nc(F)nc2c1ncn2[C@@H]1O[C@H](CO)[C@@H](O)[C@@H]1O [fludarabine] + COc1cc2ncnc(Nc3ccc(Oc4ccccc4)cc3)c2cc1OC [SrcI1] (first compound 0.2 µM, partner dose 2 µM)",93.6
8,"Nc1ccn([C@@H]2O[C@H](CO)[C@@H](O)C2(F)F)c(=O)n1 [gemcitabine] + O=C(Nc1cccc(Cl)c1)Nc1ncc(CCNc2ncnc3ccsc23)s1 [SNS314] (first compound 0.0004 µM, partner dose 0.0008 µM)",99.5
9,"Nc1nc(F)nc2c1ncn2[C@@H]1O[C@H](CO)[C@@H](O)[C@@H]1O [fludarabine] + C#Cc1cccc(Nc2ncnc3cc(OCCOC)c(OCCOC)cc23)c1 [erlotinib] (first compound 0.2 µM, partner dose 0.8 µM)",78.2
10,"Nc1nc(F)nc2c1ncn2[C@@H]1O[C@H](CO)[C@@H](O)[C@@H]1O [fludarabine] + COc1cc(N2CCC(N3CCN(C)CC3)CC2)ccc1Nc1ncc(Cl)c(Nc2ccccc2S(=O)(=O)C(C)C)n1 [NVP-TAE684] (first compound 0.2 µM, partner dose 0.08 µM)",71.7
11,"CC(=O)c1c(C)c2cnc(Nc3ccc(N4CCNCC4)cn3)nc2n(C2CCCC2)c1=O [palbociclib] + C=CCn1c(=O)c2cnc(Nc3ccc(N4CCN(C)CC4)cc3)nc2n1-c1cccc(C(C)(C)O)n1 [MK1775] (first compound 0.04 µM, partner dose 0.02 µM)",78.6

# Test system: SkMel2
# Test: as above
# Conditions: library dose: low library concentration; 72 h
row,SMILES,cell count [%]
1,"Nc1ccn([C@@H]2O[C@H](CO)[C@@H](O)C2(F)F)c(=O)n1 [gemcitabine] + O=C1NC(=O)/C(=C/c2ccc(-c3ccc(F)cc3O)o2)S1 [AS252424] (first compound 0.0004 µM, partner dose 1 µM)",103
2,"Nc1ccn([C@@H]2O[C@H](CO)[C@@H](O)C2(F)F)c(=O)n1 [gemcitabine] + CC1(C)NC(=O)N(c2ccc([N+](=O)[O-])c(C(F)(F)F)c2)C1=O [nilutamide] (first compound 0.0004 µM, partner dose 1 µM)",102
3,"Nc1ncn([C@H]2C[C@H](O)[C@@H](CO)O2)c(=O)n1 [decitabine] + NCC(=O)Nc1ccc(-n2nc(C(F)(F)F)cc2-c2ccc3c(ccc4ccccc43)c2)cc1 [OSU03012] (first compound 0.1 µM, partner dose 1 µM)",89.6
4,"Nc1ccn([C@@H]2O[C@H](CO)[C@@H](O)C2(F)F)c(=O)n1 [gemcitabine] + CC(C)CCN1c2nc(Nc3cc(F)c(O)c(F)c3)ncc2N(C)C(=O)C1C [BID1870] (first compound 0.0004 µM, partner dose 0.2 µM)",96.6
5,"CC(=O)c1c(C)c2cnc(Nc3ccc(N4CCNCC4)cn3)nc2n(C2CCCC2)c1=O [palbociclib] + COc1cc2c(Oc3ccc4[nH]c(C)cc4c3F)ncnc2cc1OCCCN1CCCC1 [cediranib] (first compound 0.04 µM, partner dose 0.4 µM)",79.6
6,"Nc1nc(F)nc2c1ncn2[C@@H]1O[C@H](CO)[C@@H](O)[C@@H]1O [fludarabine] + O=C(O)C(=O)Nc1sc2c(c1C(=O)O)CCNC2 [TCS401] (first compound 0.2 µM, partner dose 1.66667 µM)",7.57
7,"CC(=O)c1c(C)c2cnc(Nc3ccc(N4CCNCC4)cn3)nc2n(C2CCCC2)c1=O [palbociclib] + Cn1cc(/C=C2\C(=O)Nc3cccnc32)c2ccccc21 [GW441756] (first compound 0.04 µM, partner dose 0.4 µM)",77.8
8,"Nc1ccn([C@@H]2O[C@H](CO)[C@@H](O)C2(F)F)c(=O)n1 [gemcitabine] + Oc1nc(-c2ccc(C(F)(F)F)cc2)nc2c1CSCC2 [XAV939] (first compound 0.0004 µM, partner dose 2 µM)",106
9,"CC(=O)O[C@@]12CO[C@@H]1C[C@H](O)[C@@]1(C)C(=O)[C@H](O)C3=C(C)[C@@H](OC(=O)[C@H](O)[C@@H](NC(=O)OC(C)(C)C)c4ccccc4)C[C@@](O)([C@@H](OC(=O)c4ccccc4)[C@H]21)C3(C)C [Docetaxel] + Cn1c(=O)n(-c2ccc(C(C)(C)C#N)cc2)c2c3cc(-c4cnc5ccccc5c4)ccc3ncc21 [NVP-BEZ235] (first compound 0.0001 µM, partner dose 0.004 µM)",33.9
10,"CC(=O)c1c(C)c2cnc(Nc3ccc(N4CCNCC4)cn3)nc2n(C2CCCC2)c1=O [palbociclib] + Cc1cc([N+](=O)[O-])ccc1NS(=O)(=O)c1cc(Cl)ccc1Cl [FH535] (first compound 0.04 µM, partner dose 1 µM)",78.4
11,"CC(=O)O[C@@]12CO[C@@H]1C[C@H](O)[C@@]1(C)C(=O)[C@H](O)C3=C(C)[C@@H](OC(=O)[C@H](O)[C@@H](NC(=O)OC(C)(C)C)c4ccccc4)C[C@@](O)([C@@H](OC(=O)c4ccccc4)[C@H]21)C3(C)C [Docetaxel] + N#Cc1c(O)c2c(-c3ccc(-c4ccccc4O)cc3)csc2[nH]c1=O [A769662] (first compound 0.0001 µM, partner dose 2 µM)",42.6
12,"CC(=O)O[C@@]12CO[C@@H]1C[C@H](O)[C@@]1(C)C(=O)[C@H](O)C3=C(C)[C@@H](OC(=O)[C@H](O)[C@@H](NC(=O)OC(C)(C)C)c4ccccc4)C[C@@](O)([C@@H](OC(=O)c4ccccc4)[C@H]21)C3(C)C [Docetaxel] + CN(C)S(=O)(=O)c1ccc2c(c1)/C(=C/c1cc3c([nH]1)CCCC3)C(=O)N2 [SU6656] (first compound 0.0001 µM, partner dose 0.4 µM)",41.4
13,"Nc1ncn([C@H]2C[C@H](O)[C@@H](CO)O2)c(=O)n1 [decitabine] + CN(NC(=O)CC(=O)NN(C)C(=S)c1ccccc1)C(=S)c1ccccc1 [STA4783] (first compound 0.1 µM, partner dose 0.006 µM)",102
14,"CC(=O)c1c(C)c2cnc(Nc3ccc(N4CCNCC4)cn3)nc2n(C2CCCC2)c1=O [palbociclib] + NCC(=O)Nc1ccc(-n2nc(C(F)(F)F)cc2-c2ccc3c(ccc4ccccc43)c2)cc1 [OSU03012] (first compound 0.04 µM, partner dose 1 µM)",61.6
15,"CC(=O)O[C@@]12CO[C@@H]1C[C@H](O)[C@@]1(C)C(=O)[C@H](O)C3=C(C)[C@@H](OC(=O)[C@H](O)[C@@H](NC(=O)OC(C)(C)C)c4ccccc4)C[C@@](O)([C@@H](OC(=O)c4ccccc4)[C@H]21)C3(C)C [Docetaxel] + CC(C)CCN1c2nc(Nc3cc(F)c(O)c(F)c3)ncc2N(C)C(=O)C1C [BID1870] (first compound 0.0001 µM, partner dose 0.2 µM)",40.7
16,"CC(=O)c1c(C)c2cnc(Nc3ccc(N4CCNCC4)cn3)nc2n(C2CCCC2)c1=O [palbociclib] + O=C(CCCCCCC(=O)Nc1ccccc1)NO [vorinostat] (first compound 0.04 µM, partner dose 0.08 µM)",81.8
17,"CC(=O)c1c(C)c2cnc(Nc3ccc(N4CCNCC4)cn3)nc2n(C2CCCC2)c1=O [palbociclib] + CC1(C)NC(=O)N(c2ccc([N+](=O)[O-])c(C(F)(F)F)c2)C1=O [nilutamide] (first compound 0.04 µM, partner dose 1 µM)",77.6

# Reference: the supplement of paper PMC4604168 (melanoma cell lines)
